Source: PubChem BioAssay AID588342 (National Center for Advancing Translational Sciences (NCATS), 2011)
Screen size: about 360,000 compounds; about 25,000 (6.9%) were called active. Inconclusive means that the source gave no clear call. Such entries were picked first, then a sample of the others. Calls come from the whole dose curve; as a rule, active = well fitted inhibition curve with a large enough effect; inconclusive = small, poorly fitted or top-dose-only effect; inactive = flat fitted curve, though single readings scatter. Potencies of inconclusive entries are doubtful fits and often do not repeat.

Each compound was assayed against Luciferin 4-monooxygenase (Photinus pyralis) (UniProt P08659) (assay: qHTS profiling assay for firefly luciferase inhibitor/activator using purifed enzyme and Km concentrations of substrates (counterscreen for miR-21 project)). Details: purified FLuc, luminescence inhibition; activity change, negative = inhibition: at 57.5 µM (top of the series).
UniProt P08659, sequence (P08659 whole entry, looked up): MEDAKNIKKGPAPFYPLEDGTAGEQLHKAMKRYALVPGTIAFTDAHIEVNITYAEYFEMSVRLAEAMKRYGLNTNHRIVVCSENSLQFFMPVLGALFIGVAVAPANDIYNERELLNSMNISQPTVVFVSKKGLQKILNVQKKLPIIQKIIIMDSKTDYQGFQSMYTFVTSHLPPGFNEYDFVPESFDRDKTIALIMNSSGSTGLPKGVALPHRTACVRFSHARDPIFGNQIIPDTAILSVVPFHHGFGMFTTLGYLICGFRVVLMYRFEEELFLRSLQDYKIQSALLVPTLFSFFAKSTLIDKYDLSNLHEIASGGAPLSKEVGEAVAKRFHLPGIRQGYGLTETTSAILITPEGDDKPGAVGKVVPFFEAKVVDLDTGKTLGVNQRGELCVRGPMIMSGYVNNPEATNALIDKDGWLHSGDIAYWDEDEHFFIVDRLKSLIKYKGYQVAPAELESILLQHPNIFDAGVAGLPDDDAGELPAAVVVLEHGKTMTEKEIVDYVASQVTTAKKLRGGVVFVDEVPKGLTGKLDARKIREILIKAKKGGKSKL
Summary of the method: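 Biochemical qHTS of compounds, final roughly 60 µM downward over six points, against 10 nM purified firefly luciferase using Km concentrations of substrates (10 uM D-luciferin, 10 uM ATP) in Tris acetate pH 7.5 buffer; luminescence output.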
Note: nearly all actives have a fitted effect of over 55% in size.
Potency is the fitted concentration of half-maximal effect; tags give direction and shape of the fitted curve.
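Throughout, for activity change, negative = inhibition: plate controls were vehicle for no effect and reference inhibitor for full effect.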

| Compound | Potency | activity change, negative = inhibition |
| --- | --- | --- |
| O=C(c1ccc(S(=O)(=O)Nc2cccc(C(F)(F)F)c2)cc1)N1CCC1 | inconclusive: 16.9 µM [inhibitor, partial curve] |  |
| Fc1ccc(NCc2cccnc2)cc1F |  | inactive: 1.25% |
| CCNC(=O)C(=O)Nc1ccc2c(c1)N(S(=O)(=O)c1cccs1)CCC2 |  | inactive: 1.53% |
| Cc1cc2[nH]ncc2cc1NC(=S)NC(=O)c1ccccc1 | inconclusive: 12 µM [inhibitor, partial curve, poor fit] |  |
| COc1ccc(N2CCN(CCCNC(=O)c3ccc4nc(N5CCCCC5)sc4c3)CC2)cc1 | inconclusive: 21.3 µM [inhibitor, partial curve, poor fit] |  |
| C/C(=C\C(=O)c1ccccc1)Nc1ccc(O)cc1 | active: 4.78 µM |  |
| Cc1ccc(/C=C/c2onc(C)c2S(=O)(=O)N2CCC(C(=O)N(CCC(C)C)Cc3ccco3)CC2)cc1 |  | inactive: -0.289% |
| CCC(C)c1ccc(NC(=O)CC(C)=O)cc1 (centres undefined) | inconclusive: 23.9 µM [inhibitor, partial curve] |  |
| CN1C2CCC1/C(=C\c1ccc(F)cc1)C(=O)/C2=C/c1ccc(F)cc1 |  | inactive: -0.729% |
| CCOCCN1CCN(c2c3c(nc4cc(-c5ccc(F)cc5)nn24)CCC3)CC1 | inconclusive: 13.5 µM [inhibitor, partial curve, poor fit] |  |
| COc1ccccc1NC(=O)Cn1c(=O)n(-c2ccc(C)cc2)c(=O)c2c1cnn2C |  | inactive: -0.176% |
| O=C(CSc1ncccn1)Nc1ccc2c(c1)CCC2 | active: 21.3 µM |  |
| Cc1ccc(N2C(=O)CSC23C(=O)N(CC(=O)Nc2ccccc2F)c2ccccc23)cc1C (centres undefined) |  | inactive: 3.57% |
| CC(C)(C)n1cnc2cc(NCc3ccc(Br)cc3)ccc21 | active: 6.75 µM |  |
| COc1ccc(C)cc1NC(=O)Nc1ccccc1 | inconclusive: 21.3 µM [inhibitor, partial curve] |  |
| COc1ccc(C(=O)COC(=O)CCc2ccccc2)cc1 | active: 26.9 µM |  |
| COc1ccc(-c2noc(C3CCCN(C(=O)c4ccc(F)cc4)C3)n2)cc1 (centres undefined) | inconclusive: 26.9 µM [inhibitor, single point] |  |
| O=C(N/N=C/c1ccc([N+](=O)[O-])o1)c1cc(-c2ccncc2)nc2ccccc12 | inconclusive: 3.79 µM [inhibitor, partial curve, poor fit] |  |
| CCOc1cc(/C=C/c2nc3ccccc3s2)ccc1OCC(=O)N1CCOCC1 | inconclusive: 26.9 µM [inhibitor, single point] |  |
| CCCOc1ccc(CNC(=O)c2cc3ccccn3n2)cc1 | inconclusive: 23.9 µM [inhibitor, single point] |  |
| O=C(NC(=S)Nc1cccc(-c2ccc(CO)o2)c1)c1cccs1 | active: 19 µM |  |
| O=[N+]([O-])c1ccc(/C=N/NC(=S)Nc2ccccc2F)o1 | inconclusive: 37.9 µM [inhibitor, partial curve, poor fit] |  |
| Cc1c(C(=O)Nc2cccnc2Cl)oc2ccccc12 | inconclusive: 4.78 µM [inhibitor, full curve] |  |
| Cc1ccc(CNC(=O)Nc2ccccc2)c(C)c1 | active: 2.69 µM |  |
| O=C(CSCC(=O)N1CCOCC1)Nc1nc(-c2ccccc2)cs1 | inconclusive: 37.9 µM [inhibitor, partial curve, poor fit] |  |

| Compound | Potency | activity change, negative = inhibition |
| --- | --- | --- |
| Cc1cccc(NC(=O)c2ccc([N+](=O)[O-])s2)n1 | inconclusive: 26.9 µM [inhibitor, single point] |  |
| Oc1ccc(-c2nc(-c3ccc(O)c(O)c3)cs2)cc1 | active: 15.1 µM |  |
| Cc1cc([N+](=O)[O-])ccc1NCc1ccccc1[N+](=O)[O-] |  | inactive: 0.294% |
| Cc1ccc(C(=O)CCC(=O)OCc2nnc(-c3ccccc3)o2)cc1 | inconclusive: 21.3 µM [inhibitor, single point] |  |
| CC(=O)Oc1ccc(/C=N/NC(=S)Nc2ccccc2)cc1 | inconclusive: 30.1 µM [inhibitor, partial curve] |  |
| CC(=O)Nc1ccc2c(c1)ncn2C |  | inactive: 5.31% |
| O=C(Nc1ccc(Oc2ccccc2)nc1)C1CCCCN1Cc1ccco1 (centres undefined) |  | inactive: 0.0472% |
| COc1cc(/C=N/NS(=O)(=O)c2ccc(C)c([N+](=O)[O-])c2)ccc1O | inconclusive: 23.9 µM [inhibitor, partial curve, poor fit] |  |
| C/C(=N\NC(=O)c1c[nH]c2ccccc12)c1ccc2c(c1)OCO2 | active: 26.9 µM |  |
| COc1cc2c(cc1NC(=O)C(C)Oc1ccccc1)oc1ccccc12 (centres undefined) | inconclusive: 10.7 µM [inhibitor, partial curve, poor fit] |  |
| COc1[nH]c(/N=C/c2ccccc2)c(C#N)c1C#N | inconclusive: 12 µM [inhibitor, partial curve] |  |
| COc1cccc(OCc2cc(C(=O)N(C)CCOc3ccc(C)cc3)no2)c1 | active: 13.5 µM |  |
| O=C(c1ccccc1)C1C(=O)c2ccccc2C1=O | inconclusive: 37.9 µM [inhibitor, partial curve, poor fit] |  |
| CN(CC(=O)Nc1ccccc1Cl)C(=O)COC(=O)C1=COCCO1 |  | inactive: -3% |
| Cc1cc(F)ccc1NC(=O)c1c(C)oc2c1C1=NCCN1C=N2 |  | inactive: -3.63% |
| COc1ccc(CNC(=O)Cn2ncn3cccc3c2=O)cc1 | active: 21.3 µM |  |
| CCOc1cc(C=O)cc(Br)c1OCC(N)=O |  | inactive: -0.425% |
| O=C(Nc1cccc2[nH]ncc12)c1ccc(F)cc1 | inconclusive: 23.9 µM [inhibitor, partial curve, poor fit] |  |
| COc1cc(C(=O)Nc2c(C)cc(C)cc2C)c([N+](=O)[O-])cc1OC |  | inactive: -1.23% |
| O=C(Nc1cccc(C(=O)N2CCCCC2)c1)c1ccc(Cl)cc1 | inconclusive: 21.3 µM [inhibitor, single point] |  |
| Cc1ccc(CNC(=O)CNS(=O)(=O)c2ccc3c(c2)C(C)(C)C(=O)N3C)cc1 |  | inactive: -0.765% |
| CN(C)c1ccc(N=C/C=C2/N(C)c3ccccc3C2(C)C)cc1 | active: 15.1 µM |  |
| Cn1nc(C(=O)Nc2ccc(S(=O)(=O)N3CCOCC3)cc2)c2ccccc2c1=O |  | inactive: -2.37% |
| Cc1cc(Cl)ccc1OCC(=O)Nc1ccccc1NS(=O)(=O)c1cccs1 | inconclusive: 15.1 µM [inhibitor, partial curve] |  |
| O=[N+]([O-])c1ccc(Nc2ccc(F)cc2)nc1 |  | inactive: 2.28% |

| Compound | Potency | activity change, negative = inhibition |
| --- | --- | --- |
| CC1Cc2cc(-c3csc(N)n3)ccc2O1 (centres undefined) | active: 9.53 µM |  |
| COc1ccccc1NC(=O)C(C)OC(=O)CCSc1ccc(F)cc1 (centres undefined) |  | inactive: 3.7% |
| Cc1cc(C)cc(NC(=O)c2cccc(N3CCCS3(=O)=O)c2)c1 | inconclusive: 26.9 µM [inhibitor, partial curve, poor fit] |  |
| CCCCNC(=O)C(c1ccc(-c2ccccc2)cc1)N(CCN1CCOCC1)C(=O)CCCCCN1C(=O)NC(c2ccc([N+](=O)[O-])cc2)C(C(=O)OCc2ccccc2)=C1C (centres undefined) | inconclusive: 37.9 µM [inhibitor, partial curve, poor fit] |  |
| O=c1[nH]nc(-c2ccc(OCc3ccc(Cl)cc3Cl)cc2)o1 | inconclusive: 7.57 µM [inhibitor, partial curve, poor fit] |  |
| COc1cccc(N=CC2=C(O)CC(C)(C)CC2=O)c1 | inconclusive: 33.8 µM [inhibitor, single point] |  |
| Cc1ccc(/C=C/c2onc(C)c2S(=O)(=O)N2CCC(C(=O)NCc3ccc(N(C)C)cc3)CC2)cc1 |  | inactive: 2.77% |
| Cc1csc2c(N3CCN(C(=O)Nc4ccccc4)CC3)ncnc12 | inconclusive: 26.9 µM [inhibitor, partial curve] |  |
| CCCCS(=O)CC(O)CSc1nc(-c2ccc(OC)cc2)cc(-c2ccccc2)c1C#N (centres undefined) |  | inactive: -2.28% |
| COc1ccc(-c2cn(Cc3ccc([N+](=O)[O-])cc3)nn2)cc1 | inconclusive: 30.1 µM [inhibitor, partial curve, poor fit] |  |
| Oc1ccc(/C=N/Nc2nn3cnnc3c3ccccc23)cc1 | active: 9.53 µM |  |
| O=S(=O)([N-]c1nc2ccccc2nc1-[n+]1ccccc1)c1ccc(F)cc1 |  | inactive: -0.278% |
| Cc1ccc(OCCCC(=O)Nc2sc3c(c2C(N)=O)CCCC3)cc1 | inconclusive: 21.3 µM [inhibitor, partial curve, poor fit] |  |
| O=C(/C=C/c1ccc(F)cc1)NC(Cc1c[nH]c2ccccc12)C(=O)O (centres undefined) | inconclusive: 37.9 µM [inhibitor, partial curve, poor fit] |  |
| Cc1cccc(C(=O)NN/C=C/C(=O)c2ccccc2)c1 |  | inactive: -18% |
| N#CCOC(=O)C1c2ccccc2Oc2ccccc21 |  | inactive: -1.6% |
| CC(C)(C)NS(=O)(=O)c1ccc(C(=O)Nc2ccc3c(c2)OCO3)cc1 | inconclusive: 30.1 µM [inhibitor, partial curve, poor fit] |  |
| CCOc1ccccc1NC(=S)NC(=O)c1ccco1 | inconclusive: 16.9 µM [inhibitor, partial curve] |  |
| CCOC(=O)c1c(C)sc(Sc2ccc(Cl)cc2[N+](=O)[O-])c1OC |  | inactive: -0.95% |
| O=C(CNC(=O)c1ccc(Br)o1)NCc1ccc(Cl)cc1Cl |  | inactive: -14.3% |
| COc1ccc(NC(=O)Nc2cccs2)cn1 | inconclusive: 19 µM [inhibitor, partial curve] |  |
| CCC1CN(C(=O)N2CCC(C(=O)N(C)Cc3ccccc3)CC2)c2ccccc2O1 (centres undefined) | inconclusive: 12 µM [inhibitor, partial curve] |  |
| CCOC(=O)c1cc(-c2ccc(/C=C3/C(=O)N(c4ccc(C(=O)O)cc4)N=C3C)o2)ccc1Cl | inconclusive: 8.49 µM [inhibitor, partial curve] |  |
| O=C(c1ccc(Br)s1)N1CCc2ccccc2C1 | inconclusive: 26.9 µM [inhibitor, partial curve] |  |
